The values that follow come from article PMC6212790.

The other results are listed elsewhere or left out. At the low end of the ranking, values are background and their order means little.

For the assay, the target named is T1, GST-Rok (full length) (UniProt O34857).
T1 sequence: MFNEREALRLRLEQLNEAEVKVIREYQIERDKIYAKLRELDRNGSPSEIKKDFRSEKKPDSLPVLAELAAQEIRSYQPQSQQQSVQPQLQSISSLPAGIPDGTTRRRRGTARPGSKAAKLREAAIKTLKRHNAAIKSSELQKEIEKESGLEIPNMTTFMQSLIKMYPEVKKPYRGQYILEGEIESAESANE
Nature of the assay: protein binding microarray.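 Further: rank score from −0.5 (least bound) to 0.5 (best bound).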 As to conditions: Rok is a gene silencer of Bacillus subtilis; high values mean tight binding; most listed sequences are background and not binding sites; double strand, one strand shown.
ACGCTTGG: the binding signal is -0.243 E-score.

AGACGGTC gave a binding signal of -0.237 E-score.

As to CCATTCCA, the binding signal was -0.0973 E-score. As to CAGAAAAC, the binding signal worked out at 0.0354 E-score.

Regarding CCTGTCAA, the binding signal was 0.0429 E-score. Under AGACAGCT stands -0.205 E-score; under AAGAAACT, 0.185 E-score; under CAATGGCG, -0.225 E-score. Under AAAGGGTC stands -0.102 E-score; under GGTCGGAA, -0.0909 E-score; under GCCTGGAC, -0.239 E-score. CTACCCAA returned a binding signal of 0.121 E-score.

In turn, TACATCAA registered a binding signal of 0.151 E-score.

On to AAGGATGT, for which the binding signal is -0.0292 E-score. Under CGGTCCAG stands -0.167 E-score. Under AGTCATGC stands -0.144 E-score; under AGAATCAT, 0.221 E-score; under ATTCGCGC, -0.0696 E-score. Take AGGGGGTG: the binding signal is -0.405 E-score. Next, AGTCTTGG: -0.136 E-score. Under GATACTAC stands 0.278 E-score.

The sequence ATTCACTC came in with a binding signal of -0.0701 E-score. Next, GATTTGGC: -0.0885 E-score.

Take GTCGGGTA: the binding signal is -0.153 E-score. Under CTATGGTA stands 0.258 E-score. Under CCTGACCC stands -0.381 E-score; under ATAAACAA, 0.0341 E-score. Next, ACAGAGGT: -0.0355 E-score; CCGTCCCA: -0.185 E-score; AATATCCA: 0.188 E-score. With CTTGGTAC, the binding signal came out at 0.0213 E-score.

With TTAAAAAA, the binding signal is -0.246 E-score. Under ATTAAGTC stands 0.0423 E-score; under GCGGTTCC, -0.0313 E-score; under AGGAAGAC, -0.105 E-score. Under GAGGCATA stands -0.016 E-score; under ATTGATAC, 0.209 E-score. Consider ACCACCAT, for which the binding signal was -0.124 E-score. Next, GAAGCCTC: -0.261 E-score; ACAGCGTG: -0.0589 E-score; GCTATTGA: 0.0987 E-score. Next, GGGCGTCA: -0.338 E-score. Under ATGTGAAT stands 0.0895 E-score.

For the sequence TGGGTACA, the binding signal is -0.0229 E-score. Regarding AGAGTCTG, the binding signal was -0.16 E-score. Under ATAGGATG stands 0.0848 E-score. Under AGACTTGC stands -0.0491 E-score; under CACCGCAC, -0.2 E-score. As for ACTTTACA, the binding signal is 0.171 E-score. Sequence AGGTCGTG gave a binding signal of -0.126 E-score. Turning to CTAGATAC, the binding signal stood at 0.22 E-score. Next, CCCTCATC: -0.243 E-score. Next, AATTGAGT: 0.14 E-score; CGCCAGGC: -0.199 E-score; ACTCACGG: 0.0232 E-score.

For GAGGCCCA, the binding signal was -0.289 E-score. Under GACCCACC stands -0.11 E-score. As for ACGGTGAG, the binding signal is -0.0976 E-score. Under TAATCAGA stands 0.11 E-score; under CGTTACAG, 0.241 E-score. Under CTTTAAGA stands -0.118 E-score; under CAAACCAA, -0.0424 E-score. Consider CCTTATTC, for which the binding signal is -0.0288 E-score. Under CTTAGCGA stands -0.0842 E-score.

AACGATAA: the binding signal was found to be 0.185 E-score. Under CACCTGGA stands -0.185 E-score.

In turn, GGTTTTAA gave a binding signal of -0.14 E-score. CCGGGTCG returned a binding signal of -0.28 E-score.

Sequence AGCATGAG displayed a binding signal of 0.0464 E-score. Next, ATCGTGCA: 0.0306 E-score.

Take ATAGACAT: the binding signal came to 0.0125 E-score. Under GAAAACCA stands -0.118 E-score. Under CGCCATGA stands -0.187 E-score; under AACGTACG, 0.135 E-score. Under AAGGCACG stands -0.111 E-score; under TCAAACCA, -0.174 E-score; under GGCGCATA, -0.0605 E-score. ACAACCAC returned a binding signal of -0.0199 E-score. Under ATCGCCCC stands -0.321 E-score. Under GCACGTAC stands -0.0148 E-score; under CGATCGGA, -0.038 E-score; under ATTCAGAA, -0.0273 E-score.

In turn, ACCCAGCA had a binding signal of -0.126 E-score. For the sequence AGAAACAG, the binding signal turned out to be 0.216 E-score. Under TCCGCCGA stands -0.178 E-score. Next, CACCATCC: -0.224 E-score; CGAATACC: 0.0161 E-score; ATAAAGCC: -0.148 E-score. Next, TACCTATA: 0.37 E-score; GATAAGAC: 0.119 E-score; GTCCGTTA: -0.0995 E-score. Consider TACCGACA, for which the binding signal worked out at 0.223 E-score. Next, AGTCCTAC: 0.0424 E-score; ACTAATTA: 0.438 E-score. Next, AGTAGTGC: 0.0725 E-score; ATTATCAG: 0.232 E-score; GCACAACA: 0.0536 E-score. Next, GAGAACGC: 0.0327 E-score; AATAATCG: 0.045 E-score; CTTTTACC: 0.12 E-score. Consider GTTCAGGA, for which the binding signal turned out to be 0.027 E-score. Next, CGCATAGA: -0.069 E-score. Sequence CCGGGTCC displayed a binding signal of -0.279 E-score. Next, AGGCTGAA: -0.255 E-score; GGCCTTGA: -0.327 E-score; ACTAAGTA: 0.281 E-score. Under TCGCAGAA stands -0.163 E-score; under AAGTGTTA, 0.148 E-score; under CTACCGGC, -0.0205 E-score. Under CTGGTCCC stands -0.277 E-score; under CTAACGAC, -0.103 E-score. Take ACGTCTCT: the binding signal is -0.156 E-score. Under AATCGTCC stands 0.0103 E-score. Under ACGCTCGA stands -0.142 E-score; under AAGCAAAT, 0.062 E-score; under AGCCGCAT, -0.147 E-score. Next, AGATACGG: -0.0193 E-score. Turning to AGGACCCG, the binding signal was -0.222 E-score. As to CGAATAGC, the binding signal was -0.144 E-score. Under GGTTGGGA stands -0.1 E-score; under TCGAGAAA, 0.135 E-score. Next, CCTTTATC: 0.0298 E-score; ACTTGACC: -0.14 E-score; GCGAATAA: 0.113 E-score.

In the case of TCCCTAAA, the binding signal was -0.167 E-score. In turn, CATTTACA had a binding signal of 0.308 E-score.

In turn, CACTCGGC gave a binding signal of -0.249 E-score. Consider CAAAGTAG, for which the binding signal is 0.148 E-score.

GACCCATC showed a binding signal of -0.147 E-score. For the sequence ATCGACAC, the binding signal is 0.0552 E-score. TAGTATCA yielded a binding signal of 0.199 E-score.

In turn, GGACAAGA returned a binding signal of -0.158 E-score.

Consider ACTGAGTG, for which the binding signal is 0.0531 E-score. Next, GAGTCTGA: -0.0421 E-score.

In turn, CACCCTCA had a binding signal of -0.147 E-score. Sequence CGACACAA came in with a binding signal of -0.18 E-score. For the sequence CTGCAGAA, the binding signal was -0.0349 E-score. As for ACTAATCC, the binding signal came out at 0.178 E-score.

As to ACGGCACA, the binding signal worked out at 0.173 E-score.

Sequence GGTAAATA registered a binding signal of 0.299 E-score. Next, GACCCCAA: -0.366 E-score; CATAAAGA: 0.0223 E-score; TTCGAGAA: 0.0693 E-score. The sequence AGGATATA registered a binding signal of 0.287 E-score.

As for CTCACTTA, the binding signal was -0.116 E-score. Next, ATTAAGGC: -0.00296 E-score.

In turn, GTGAAGAA yielded a binding signal of 0.0156 E-score. Next, AAAAGTCG: -0.0454 E-score; AATAAATC: 0.233 E-score; CTAGCCAG: -0.0869 E-score.

In turn, CATGAAGG displayed a binding signal of -0.159 E-score.

AAGGAATG came in with a binding signal of -0.221 E-score. Under CTCGCATA stands -0.0555 E-score; under GCCATAAC, 0.0281 E-score.

On to GATGAAGC, for which the binding signal is -0.0121 E-score. Under GAACCTTC stands -0.202 E-score; under AACCGGTG, -0.223 E-score; under ATCCCCTC, -0.361 E-score. Next, CCGCTGGC: -0.251 E-score. Next, AGCTACGA: 0.163 E-score; ATTGTTTA: -0.087 E-score; ACGCAAAC: 0.106 E-score. Turning to AATTACGT, the binding signal came out at 0.303 E-score. Next, CGGTTGAC: -0.154 E-score; AATCCGCC: -0.211 E-score.

On to GGTCTGCA, for which the binding signal is -0.196 E-score. In the case of CTTTGCTA, the binding signal was 0.163 E-score. In turn, CGCCGACG registered a binding signal of -0.0281 E-score. Sequence AAGGCTGC gave a binding signal of -0.224 E-score.

ACATCGAT yielded a binding signal of 0.166 E-score. Take AATTGGTA: the binding signal worked out at 0.339 E-score.

The sequence CCAGGCCA yielded a binding signal of -0.255 E-score.
